According to the supplement of paper PMC9446081:
The campaign covered roughly 39,000 compounds. About 220 (0.56%) showed activity. Some of the results follow.

Test system: Escherichia coli K-12 BW25113
Assay: relative growth (OD600 normalised to plate interquartile mean) (fraction); higher = less growth inhibition, active = 0.2 or less
Settings: 50 µM; LB; incubation time: overnight (16-24 h)
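Note: static incubation at 37 °C against the wild-type strain, values averaged over two biological replicates.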

Compound	relative growth
CCCCC(=O)N1C[C@@H]2CCNC[C@@H]21	inactive: 0.951
CC1(C)CCNC1=O	inactive: 1.04
CC(=O)[O][Hg][c]1ccccc1	active: 0.0564
C=C(C)[C@H]1CN[C@H](C(=O)O)[C@H]1CC(=O)O	inactive: 0.978
N#Cc1cccnc1	inactive: 1.01
CN1[C@@H](CO)[C@@H]2c3ccccc3NC[C@@H]21	inactive: 1.01
CC(=O)O[C@H]1C[C@@H]2CC[C@@H]3[C@H](CC[C@@]4(C)[C@H]3C[C@H]([N+]3(C)CCCCC3)[C@@H]4OC(C)=O)[C@@]2(C)C[C@@H]1[N+]1(C)CCCCC1	inactive: 1
O[C@H]1[C@H](O)[C@@H](O)CN2CC[C@H](O)[C@H]12	inactive: 0.994
CCOP(=S)(OCC)SCSP(=S)(OCC)OCC	inactive: 1.02
C[C@@H]1CN([C@H](C)CO)C(=O)CCCn2nncc2CO[C@H]1CN(C)C(=O)Oc1ccc2ccccc2c1	inactive: 1.02
CC(C)(C)C(O)(CCc1ccc(Cl)cc1)Cn1cncn1 (configuration not stated)	inactive: 1.05
c1cnc(N2CCOC[C@@]3(CCCNC3)C2)cn1	inactive: 1
CC=Cc1ccc2c(c1)OCO2	inactive: 0.883
Nc1nc(N)nc(NC2CC2)n1	inactive: 0.895
Cc1ccc(-c2nc3ccc(C)cn3c2CC(=O)N(C)C)cc1	inactive: 0.836
N#CCCN1CCCC2(CCCC2)C1	inactive: 0.99
Cl.NCCc1ccccc1	inactive: 0.983
C[C@@H]1CN([C@H](C)CO)C(=O)c2c(c3ccccc3n2C)-c2ccccc2CO[C@H]1CN(C)C(=O)Oc1ccccc1	inactive: 1.01
CN1C[C@H]2CN[C@H]2C1	inactive: 1.04
O=[N+]([O-])c1ccc(N(CCO)CCO)c2c1no[n+]2[O-]	active: 0.0367
CO[C@H]1[C@@H](O)[C@@H](O[C@H]2CC[C@]3(C=O)[C@@H]4[C@@H](CC[C@]3(O)C2)[C@@]2(O)CC[C@H](C3=CC(=O)OC3)[C@@]2(C)C[C@H]4OC(C)=O)O[C@@H](C)[C@@H]1OC(C)=O	inactive: 1
COc1ccc(Cc2nccc3cc(OC)c(OC)cc23)cc1OC.Cl	inactive: 0.959
O=C(O)C(Cl)Cl.[NaH]	inactive: 0.879
C[N+]1([O-])C2CCC1CC(OC(=O)C(CO)c1ccccc1)C2 (configuration not stated)	inactive: 0.951
C=C(C)[C@@H]1CCC(C)=C[C@H]1c1c(O)cc(CCCCC)cc1O	inactive: 1.01

Compound	relative growth
C[C@H]1O[C@H](O[C@H]2[C@H](O)[C@@H](O)[C@@H](O)[C@H](O)[C@@H]2O)[C@@H](N)C[C@@H]1NC(=N)C(=O)O	inactive: 0.504
CC(C)Oc1ccc(CCN)cc1	inactive: 1
C[C@@H]1CN([C@H](C)CO)C(=O)CCCn2nncc2CO[C@@H]1CN(C)C(=O)Oc1ccc2ccccc2c1	inactive: 0.998
C#CC1(O)CCC2C3CCC4=CC(=O)CCC4(C)C3CCC21C (configuration not stated)	inactive: 1.06
O=C1[O][SbH]23[O]C(=O)[C@H]([O]2)[C@H]2[O][SbH]4([O]C(=O)[C@H]([O]4)[C@H]1[O]3)[O]C2=O	inactive: 0.313
N[C@@H](Cc1ccc(O)cc1)C(=O)NCC(=O)NCC(=O)O	inactive: 0.969
COCCC(=O)N1C[C@H]2CCN[C@H]2C1	inactive: 0.987
CC(=O)NCCSS(C)(=O)=O.CN(C)c1ccc2c(-c3ccccc3C(=O)O)c3ccc(N(C)C)cc3[o+]c2c1	inactive: 1.03
O=C1NC2(CCNCC2)C[C@@H]1c1ccncc1	inactive: 0.994
Cc1cc(O)ccc1Cl	inactive: 0.754
C[C@H](N)Cc1cnc[nH]1	inactive: 1.02
CCCC(C)C1(CC)C(=O)N=C([S-])NC1=O.[Na+] (configuration not stated)	inactive: 0.853
Cc1o[nH]c(=O)c1C[C@@H](N)C(=O)O	inactive: 1
COc1ccc(N(C(=O)Oc2c(C)cccc2C)c2ccnc(Nc3ccc(N4CCN(C)CC4)cc3)n2)c(OC)c1	inactive: 1.02
C[C@@H]1CN([C@H](C)CO)C(=O)CCCn2nncc2CO[C@H]1CN(C)C(=O)Oc1cccc2ccccc12	inactive: 1.01
CC(=O)OC1C(=O)C2(C)C(O)CC3OCC3(OC(C)=O)C2C(OC(=O)c2ccccc2)C2(O)CC(O)C(C)=C1C2(C)C (configuration not stated)	inactive: 1.01
Nc1nc(Cl)ncc1[N+](=O)[O-]	inactive: 0.988
O=C(OC1CC2CCC(C1)[N+]21CCCC1)C(O)(c1ccccc1)c1ccccc1.[Cl-] (configuration not stated)	inactive: 1.02
NNc1ccn([C@H]2O[C@@H](CO)[C@@H](O)[C@@H]2O)c(=O)n1	inactive: 0.394
O=C(O)Cc1cnc[nH]1	inactive: 0.999
CC(C)c1ccc2[nH]c(=O)c(CCN)cc2c1	inactive: 0.97
NC(=O)CN1C[C@@H](O)CC1=O	inactive: 0.999
COc1ccc(C2(CN)CCCC2)cc1	inactive: 1.02
C[C@@H](N)Cc1ccc2occc2c1	inactive: 1.04
CC(=C1C(=O)NC(=O)NC1=O)c1ccc(N)cc1	inactive: 1.01

Compound	relative growth
CC12CCC3c4ccc(OC(=O)N(CCCl)CCCl)cc4CCC3C1CCC2O (configuration not stated)	inactive: 0.992
N=C(N)NO	inactive: 1.02
COc1cccc2c1C(=O)c1c(O)c3c(c(O)c1C2=O)C[C@@](O)(C(=O)CO)C[C@@H]3O[C@H]1C[C@H](N2CCO[C@H](OC)C2)[C@H](O)[C@H](C)O1	inactive: 0.933
CO[C@@H]1C=C[C@@H]2[C@H]1N2CCO (some centres not stated)	inactive: 0.968
COC(=O)[C@H]1[C@H](CO)[C@H]2Cn3c(cccc3=O)[C@@H]1N2C(=O)C1CC1	inactive: 1.02
C/C=C(/C)C(=O)O[C@H]1CC[C@@]2(C)[C@@H]3CC[C@H]4[C@]5(O)C[C@H](O)[C@@]6(O)[C@@H](CN7C[C@@H](C)CC[C@H]7[C@@]6(C)O)[C@]5(O)C[C@@]42O[C@@]13O	inactive: 1.01
O.O=c1ccc2cc(OC3OC(CO)C(O)C(O)C3O)c(O)cc2o1 (configuration not stated)	inactive: 1.07
NNc1ccn([C@@H]2O[C@H](CO)[C@@H](O)[C@H]2O)c(=O)n1	inactive: 0.684
O=C1[O][Pt]2([NH][C@@H]3CCCC[C@H]3[NH]2)[O]C1=O	inactive: 0.96
CC1=C(O)C(=O)C=C2C1=CC=C1C2(C)CCC2(C)C3CC(C)(C(=O)O)CCC3(C)CCC12C (configuration not stated)	inactive: 1.02
O=c1ccc(=O)[nH][nH]1	inactive: 0.994
C[C@@H]1CN([C@@H](C)CO)C(=O)c2c(c3ccccc3n2C)-c2ccccc2CO[C@@H]1CN(C)C(=O)Oc1ccccc1	inactive: 0.989
CC(=O)N[C@@H]1CCSC1=O	inactive: 1.01
O=C1O[C@H]2CN[C@@H]1C2	inactive: 0.987
C[N+](C)(C)CCCl	inactive: 1
CC(=O)OC1CC(OC2C(O)CC(OC3C(O)CC(OC4CCC5(C)C(CCC6C5CC(O)C5(C)C(C7=CC(=O)OC7)CCC65O)C4)OC3C)OC2C)OC(C)C1OC1OC(CO)C(O)C(O)C1O (configuration not stated)	inactive: 0.995
Cc1nn[nH]n1	inactive: 0.979
CC[C@@H](CN)c1ccccc1	inactive: 0.896
O=C([O-])CCCO.[Na+]	inactive: 1.11
C[C@@]1(C(=O)O)[C@H]2CC[C@@H](O2)[C@@]1(C)C(=O)O	inactive: 0.979
O=C1[O][SbH]23[O]C(=O)C([O]2)C2[O][SbH]4([O]C(=O)C([O]4)C1[O]3)[O]C2=O	inactive: 0.368
CCCC12CNCC(C)(CNC1)C2=O	inactive: 0.998
CCCCC1C(=O)NC(=S)NC1=O	inactive: 1.02
C[C@H]1C[C@H]2CNCC[C@@H]2O1	inactive: 1.03
O=S1(=O)COC2(CNC2)CN1	inactive: 0.995

Compound	relative growth
ClC=C(Cl)Cl	inactive: 1.13
NCC1(c2c(F)cc(F)cc2F)CC1	inactive: 0.966
Clc1nc(N2CCNCC2)c2[nH]cnc2n1	inactive: 0.993
Cc1ccc(OC(=O)N(C)C[C@H]2OCc3ccccc3-c3c(n(C)c4ccccc34)C(=O)N([C@H](C)CO)C[C@H]2C)cc1	inactive: 0.996
C[C@H]1C(=O)O[C@@H]2CCN3CC=C(COC(=O)[C@](C)(O)[C@]1(C)O)[C@H]23	inactive: 1
C[C@@H](N)Cc1cccc(O)c1	inactive: 0.998
C1C[C@@H]2C[C@@H]2N1	inactive: 1.05
CN1CC[C@]2(CCCO2)C1	inactive: 0.989
CCn1cc(C(=O)[O-])c(=O)c2cc3c(cc21)OCO3.[K+]	active: 0.0482
CCC(C)(C)O	inactive: 1.03
CN(C)C(=S)SSC(=S)N(C)C	inactive: 0.518
C[C@H]1CN(C)[C@@H](C)C[C@@H]1n1[nH]c(=O)cc1N	inactive: 0.973
CC(C)c1ccc2c(c1O)CCC1C3=C(CCC21C)C(=O)OC3 (configuration not stated)	inactive: 0.999
O=C1NC(=O)C(=O)C(=O)N1	inactive: 1
OCC(Br)(Br)Br	inactive: 1.02
CCN1C[C@]2(OC(=O)c3ccccc3NC(C)=O)CC[C@H](OC)[C@@]34[C@@H]2C[C@@H]([C@@H]13)[C@@]1(O)C[C@H](OC)[C@H]2C[C@@H]4[C@]1(O)[C@H]2OC	inactive: 1.01
CCC(CO)NC(=O)C1C=C2c3cccc4c3c(cn4C)CC2N(C)C1.O=C(O)C=CC(=O)O (configuration not stated)	inactive: 0.905
c1cc2c(c(N3CCNCC3)c1)OCCO2	inactive: 1
C1COC2(CCOCC2)CN1	inactive: 0.986
CC12CCC(O)CC1CCC1C2CC(O)C2(C)C(C3=CC(=O)OC3)CCC12O (configuration not stated)	inactive: 0.988
COc1cc2c(cc1-c1cc3cc4ccoc4cc3oc1=O)OCO2	inactive: 1
CCCC(=O)O[C@H]1CN2CC[C@H](O)[C@@H]2[C@@H](O)[C@@H]1O	inactive: 0.985
